In patent US20230159603A1 (XILIO DEVELOPMENT, published 2023):

Key:
[1] = molecular target: rhIL-12RB1-Fc (human, UniProt P42701 24-545, limits assumed); experiment: SPR, IL-12 receptor immobilised, IL-12 construct flowed, 25 C, FIGS. 34A-34D
Description: Sensor Chips were coated and immobilized with IL-12 receptors. Dilutions of IL-12 constructs were flowed over the chips with the immobilized IL-12 receptors to determine the on rate at 25 degrees C. At equilibrium (approximately 3-4 minutes), the flow buffer was changed to PBST, to determine the off rates over 6 minutes. Between each run the chip was regenerated. The tables represent the SPR data (FIGS. 34 and 35).

[2] = molecular target: human IL-12 receptor (IL-12Rβ1 and IL-12Rβ2) on HEK-Blue IL-12 reporter cells (human, UniProt P42701 24-662; Q99665 24-862); experiment: cell-based or functional assay

| binding result [1] | Aklusion (Run 1) [2] [fold] | Aklusion (Run 2) [2] [fold] | Average Aklusion [2] [fold] | Binder |
| --- | --- | --- | --- | --- |
| no binding | 19.4 | 14.9 | 17.1 | AK386 (Fc fusion, Masked IL-12 heterodimer, IL-12Rβ2 (24-319) mask; tested uncleaved; also called AK386 null) chain 1: [human IgG1 Fc with changes left out here]GGGGSGGGGSKIDACKRGDVTVKPSHVILLGSTVNITCSLKPRQGCFHYSRRNKLILYKFDRRINFHHGHSLNSQVTGLPLGTTLFVCKLACINSDEIQICGAEIFVGVAPEQPQNLSCIQKGEQGTVACTWERGRDTHLYTEYTLQLSGPKNLTWQKQCKDIYCDYLDFGINLTPESPESNFTAKVTAVNSLGSSSSLPSTFTFLDIVRPLPPWDIRIKFQKASVSRCTLYWRDEGLVLLNRLRYRPSNSRLWNMVNVTKAKGRHDLLDLKPFTEYEFQISSKLHLYKGSWSDWSESLRAQTPEE chain 2: DKTHTCPPCPAPELLGGPSVFLFPPKPKDTLMISRTPEVTCVVVDVSHEDPEVKFNWYVDGVEVHNAKTKPREEQYASTYRVVSVLTVLHQDWLNGKEYKCKVSNKALPAPIEKTISKAKGQPREPQVYTLPPCRDELTKNQVSLWCLVKGFYPSDIAVEWESNGQPENNYKTTPPVLDSDGSFFLYSKLTVDKSRWQQGNVFSCSVMHEALHNHYTQKSLSLSPGGGSGGSGGSVPLSLYSGPIWELKKDVYVVELDWYPDAPGEMVVLTCDTPEEDGITWTLDQSSEVLGSGKTLTIQVKEFGDAGQYTCHKGGEVLSHSLLLLHKKEDGIWSTDILKDQKEPKNKTFLRCEAKNYSGRFTCWWLTTISTDLTFSVKSSRGSSDPQGVTCGAATLSAERVRGDNKEYEYSVECQEDSACPAAEESLPIEVMVDAVHKLKYENYTSSFFIRDIIKPDPPKNLQLKPLKNSRQVEVSWEYPDTWSTPHSYFSLTFCVQVQGKSKREKKDRVFTDKTSATVICRKNASISVRAQDRYYSSSWSEWASVPCSGGGGSGGGGSGGGGSRNLPVATPDPGMFPCLHHSQNLLRAVSNMLQKARQTLEFYPCTSEEIDHEDITKDKTSTVEACLPLELTKNESCLNSRETSFITNGSCLASRKTSFMMALCLSSIYEDLKMYQVEFKTMNAKLLMDPKRQIFLDQNMLAVIDELMQALNFNSETVPQKSSLEEPDFYKTKIKLCILLHAFRIRAVTIDRVMSYLNAS |
|  | 40.4 | 37.1 | 38.7 | AK925 (Fc fusion) chain 1: [human IgG1 Fc with changes left out here]GGSGGGSGKIDACKRGDVTVKPSHVILLGSTVNITCSLKPRQGCFHYSRRNKLILYKFDRRINFHHGHSLNSQVTGLPLGTTLFVCKLACINSDEIQICGAEIFVGVAPEQPQNLSCIQKGEQGTVACTWERGRDTHLYTEYTLQLSGPKNLTWQKQCKDIYCDYLDFGINLTPESPESNFTAKVTAVNSLGSSSSLPSTFTFLDIVRPLPPWDIRIKFQKASVSRSTLYWRDEGLVLLNRLRYRPSNSRLWNMVNVTKAKGRHDLLDLKPFTEYEFQISSKLHLYKGSWSDWSESLRAQTPEE chain 2: DKTHTCPPCPAPELLGGPSVFLFPPKPKDTLMISRTPEVTCVVVDVSHEDPEVKFNWYVDGVEVHNAKTKPREEQYASTYRVVSVLTVLHQDWLNGKEYKCKVSNKALPAPIEKTISKAKGQPREPQVYTLPPCRDELTKNQVSLWCLVKGFYPSDIAVEWESNGQPENNYKTTPPVLDSDGSFFLYSKLTVDKSRWQQGNVFSCSVMHEALHNHYTQKSLSLSPGGGSGGSGGSRAAAVKSPSGPIWELKKDVYVVELDWYPDAPGEMVVLTCDTPEEDGITWTLDQSSEVLGSGKTLTIQVKEFGDAGQYTCHKGGEVLSHSLLLLHKKEDGIWSTDILKDQKEPKNKTFLRCEAKNYSGRFTCWWLTTISTDLTFSVKSSRGSSDPQGVTCGAATLSAERVRGDNKEYEYSVECQEDSACPAAEESLPIEVMVDAVHKLKYENYTSSFFIRDIIKPDPPKNLQLKPLKNSRQVEVSWEYPDTWSTPHSYFSLTFSVQVQGKDNTEGRVFTDKTSATVICRKNASISVRAQDRYYSSSWSEWASVPCSGGGGSGGGGSGGGGSRNLPVATPDPGMFPCLHHSQNLLRAVSNMLQKARQTLEFYPCTSEEIDHEDITKDKTSTVEACLPLELTKNESCLNSRETSFITNGSCLASRKTSFMMALCLSSIYEDLKMYQVEFKTMNAKLLMDPKRQIFLDQNMLAVIDELMQALNFNSETVPQKSSLEEPDFYKTKIKLCILLHAFRIRAVTIDRVMSYLNAS |
